{"source": "patent US20050119224A1", "about": "“Use of n-acetyl-d-glucosamine in the manufacture of pharmaceutical useful for adjuvant treatment of perianal disease” (priority 2001, published 2005)", "test_system": "Proteus Mirabilis", "assay": "Promoting wave test (bio-wave model)", "conditions": "final concentration of 0.5% on LB plate, 37° C., compared with control", "description": "1.1 Samples: Pure Compound of Formula (I)\nStrain: Proteus Mirabilis (which should comply with the following biological reaction characteristics: dynamics (+), urease (+), lactose (−), glucose (+), H2S (−), phenylalanine deaminase (+).\nCulture medium: modified LB culture medium (the component of the composition are: trytones of 1%, yeast extract of 0.5%, sodium chloride 1%, glucose of 0.1%, TTC of 0.002% and pH=7.2˜7.4)."}
{"smiles": "CC(=O)N[C@@H]1[C@@H](O)[C@H](O)[C@@H](CO)O[C@H]1O", "note": "[compound of formula (I), N-acetyl-D-glucosamine]", "values": [{"measurement": "promoting wave function (wave pattern of concentric rings)", "result": "there were also many fine waves on each ring emerged"}]}
